Experimental data taken from the supplement of paper PMC8728848.
Some of the results follow.

Columns and labels:
Test in all cases: glycan array binding signal (z-score within array); higher = stronger binding
Conditions in all cases: glycan notation: IUPAC condensed, linker removed
[1] = target: Gal(b1-4)GlcNAc(b1-3)Gal(b1-4)GlcNAc(b1-2)[Gal(b1-4)GlcNAc(b1-3)Gal(b1-4)GlcNAc(b1-6)]Man(a1-6)[Gal(b1-4)GlcNAc(b1-3)Gal(b1-4)GlcNAc(b1-2)Man(a1-3)]Man(b1-4)GlcNAc(b1-4)GlcNAc
Procedure, shortened: (§1)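 Glycan array binding is given as a within-array Z-score, which can be read as non-binding when negative. The arrays, 3228 of them, came from the Consortium for Functional Glycomics database and were retained only where the protein sequence was available. Z-scores were averaged across arrays of the same protein sequence at different concentrations or buffers and across linkers.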

[2] = target: Gal(b1-4)GlcNAc(b1-3)Gal(b1-4)GlcNAc(b1-2)[Gal(b1-4)GlcNAc(b1-3)Gal(b1-4)GlcNAc(b1-6)]Man(a1-6)[Gal(b1-4)GlcNAc(b1-3)Gal(b1-4)GlcNAc(b1-2)Man(a1-3)]Man(b1-4)GlcNAc(b1-4)[Fuc(a1-6)]GlcNAc
Procedure, shortened: as §1

[3] = target: Gal(b1-4)GlcNAc(b1-3)Gal(b1-4)GlcNAc(b1-3)Gal(b1-4)GlcNAc
Procedure, shortened: as §1

[4] = target: Gal(b1-4)GlcNAc(b1-3)Gal(b1-4)GlcNAc(b1-3)Gal(b1-4)GlcNAc(b1-2)Man(a1-3)[Gal(b1-4)GlcNAc(b1-3)Gal(b1-4)GlcNAc(b1-3)Gal(b1-4)GlcNAc(b1-2)Man(a1-6)]Man(b1-4)GlcNAc(b1-4)GlcNAc
Procedure, shortened: as §1

[5] = target: Gal(b1-4)GlcNAc(b1-3)Gal(b1-4)GlcNAc(b1-3)Gal(b1-4)GlcNAc(b1-2)Man(a1-3)[Gal(b1-4)GlcNAc(b1-3)Gal(b1-4)GlcNAc(b1-3)Gal(b1-4)GlcNAc(b1-2)Man(a1-6)]Man(b1-4)GlcNAc(b1-4)[Fuc(a1-6)]GlcNAc
Procedure, shortened: as §1

[6] = target: Gal(b1-4)GlcNAc(b1-3)Gal(b1-4)GlcNAc(b1-3)Gal(b1-4)GlcNAc(b1-2)[Gal(b1-4)GlcNAc(b1-3)Gal(b1-4)GlcNAc(b1-3)Gal(b1-4)GlcNAc(b1-6)]Man(a1-6)[Gal(b1-4)GlcNAc(b1-3)Gal(b1-4)GlcNAc(b1-3)Gal(b1-4)GlcNAc(b1-2)Man(a1-3)]Man(b1-4)GlcNAc(b1-4)[Fuc(a1-6)]GlcNAc
Procedure, shortened: as §1

[7] = target: Gal(b1-4)GlcNAc(b1-3)Gal(b1-4)GlcNAc(b1-3)Gal(b1-4)GlcNAc(b1-3)Gal(b1-4)GlcNAc(b1-2)Man(a1-3)[Gal(b1-4)GlcNAc(b1-3)Gal(b1-4)GlcNAc(b1-3)Gal(b1-4)GlcNAc(b1-3)Gal(b1-4)GlcNAc(b1-2)Man(a1-6)]Man(b1-4)GlcNAc(b1-4)GlcNAc
Procedure, shortened: as §1

[8] = target: Gal(b1-4)GlcNAc(b1-3)Gal(b1-4)GlcNAc(b1-3)Gal(b1-4)GlcNAc(b1-3)Gal(b1-4)GlcNAc(b1-2)Man(a1-3)[Gal(b1-4)GlcNAc(b1-3)Gal(b1-4)GlcNAc(b1-3)Gal(b1-4)GlcNAc(b1-3)Gal(b1-4)GlcNAc(b1-2)Man(a1-6)]Man(b1-4)GlcNAc(b1-4)[Fuc(a1-6)]GlcNAc
Procedure, shortened: as §1

[9] = target: Gal(b1-4)GlcNAc(b1-3)Gal(b1-4)GlcNAc(b1-3)Gal(b1-4)GlcNAc(b1-3)Gal(b1-4)GlcNAc(b1-2)[Gal(b1-4)GlcNAc(b1-3)Gal(b1-4)GlcNAc(b1-3)Gal(b1-4)GlcNAc(b1-3)Gal(b1-4)GlcNAc(b1-6)]Man(a1-6)[Gal(b1-4)GlcNAc(b1-3)Gal(b1-4)GlcNAc(b1-3)Gal(b1-4)GlcNAc(b1-3)Gal(b1-4)GlcNAc(b1-2)Man(a1-3)]Man(b1-4)GlcNAc(b1-4)[Fuc(a1-6)]GlcNAc
Procedure, shortened: as §1

[10] = target: Gal(b1-4)GlcNAc(b1-3)Gal(b1-4)GlcNAc(b1-3)Gal(b1-4)GlcNAc(b1-3)Gal(b1-4)GlcNAc(b1-3)Gal(b1-4)GlcNAc(b1-2)Man(a1-3)[Gal(b1-4)GlcNAc(b1-3)Gal(b1-4)GlcNAc(b1-3)Gal(b1-4)GlcNAc(b1-3)Gal(b1-4)GlcNAc(b1-3)Gal(b1-4)GlcNAc(b1-2)Man(a1-6)]Man(b1-4)GlcNAc(b1-4)GlcNAc
Procedure, shortened: as §1

[11] = target: Gal(b1-4)GlcNAc(b1-3)Gal(b1-4)GlcNAc(b1-3)Gal(b1-4)GlcNAc(b1-3)Gal(b1-4)GlcNAc(b1-3)Gal(b1-4)GlcNAc(b1-2)Man(a1-3)[Gal(b1-4)GlcNAc(b1-3)Gal(b1-4)GlcNAc(b1-3)Gal(b1-4)GlcNAc(b1-3)Gal(b1-4)GlcNAc(b1-3)Gal(b1-4)GlcNAc(b1-2)Man(a1-6)]Man(b1-4)GlcNAc(b1-4)[Fuc(a1-6)]GlcNAc
Procedure, shortened: as §1

[12] = target: Gal(b1-4)GlcNAc(b1-3)Gal(b1-4)GlcNAc(b1-3)Gal(b1-4)GlcNAc(b1-3)Gal(b1-4)GlcNAc(b1-3)Gal(b1-4)GlcNAc(b1-2)[Gal(b1-4)GlcNAc(b1-3)Gal(b1-4)GlcNAc(b1-3)Gal(b1-4)GlcNAc(b1-3)Gal(b1-4)GlcNAc(b1-3)Gal(b1-4)GlcNAc(b1-6)]Man(a1-6)[Gal(b1-4)GlcNAc(b1-3)Gal(b1-4)GlcNAc(b1-3)Gal(b1-4)GlcNAc(b1-3)Gal(b1-4)GlcNAc(b1-3)Gal(b1-4)GlcNAc(b1-2)Man(a1-3)]Man(b1-4)GlcNAc(b1-4)[Fuc(a1-6)]GlcNAc
Procedure, shortened: as §1

[13] = target: Gal(b1-4)GlcNAc(b1-3)Gal(b1-4)GlcNAc(b1-3)Gal(b1-4)GlcNAc(b1-3)Gal(b1-4)GlcNAc(b1-3)Gal(b1-4)GlcNAc(b1-3)Gal(b1-4)GlcNAc(b1-2)Man(a1-3)[Gal(b1-4)GlcNAc(b1-3)Gal(b1-4)GlcNAc(b1-3)Gal(b1-4)GlcNAc(b1-3)Gal(b1-4)GlcNAc(b1-3)Gal(b1-4)GlcNAc(b1-3)Gal(b1-4)GlcNAc(b1-2)Man(a1-6)]Man(b1-4)GlcNAc(b1-4)GlcNAc
Procedure, shortened: as §1

[14] = target: Gal(b1-4)GlcNAc(b1-3)Gal(b1-4)GlcNAc(b1-3)GalNAc
Procedure, shortened: as §1

[15] = target: Gal(b1-4)GlcNAc(b1-3)Gal(b1-4)GlcNAc(b1-3)[Gal(b1-4)GlcNAc(b1-3)Gal(b1-4)GlcNAc(b1-6)]GalNAc
Procedure, shortened: as §1

[16] = target: Gal(b1-4)GlcNAc(b1-3)Gal(b1-4)GlcNAc(b1-6)[Gal(b1-3)]GalNAc
Procedure, shortened: as §1

[17] = target: Gal(b1-4)GlcNAc(b1-3)Gal(b1-4)[Fuc(a1-3)]GlcNAc(b1-3)Gal(b1-4)[Fuc(a1-3)]GlcNAc
Procedure, shortened: as §1

[18] = target: Gal(b1-4)GlcNAc(b1-3)GalNAc
Procedure, shortened: as §1

[19] = target: Gal(b1-4)GlcNAc(b1-3)[Fuc(a1-3)GlcNAc(b1-6)]Gal(b1-4)Glc
Procedure, shortened: as §1

[20] = target: Gal(b1-4)GlcNAc(b1-3)[Gal(b1-4)GlcNAc(b1-6)]Gal(b1-4)GlcNAc
Procedure, shortened: as §1

[21] = target: Gal(b1-4)GlcNAc(b1-3)[GlcNAc(b1-6)]Gal(b1-4)GlcNAc
Procedure, shortened: as §1

[22] = target: Gal(b1-4)GlcNAc(b1-6)Gal(b1-4)GlcNAc
Procedure, shortened: as §1

[23] = target: Gal(b1-4)GlcNAc(b1-6)GalNAc
Procedure, shortened: as §1

[24] = target: Gal(b1-4)GlcNAc(b1-6)[Gal(b1-3)]GalNAc
Procedure, shortened: as §1

[25] = target: Gal(b1-4)GlcNAc(b1-6)[Gal(b1-4)GlcNAc(b1-3)]GalNAc
Procedure, shortened: as §1

Gal(b1-4)GlcNAc6P = target: Gal(b1-4)GlcNAc6P
Procedure, shortened: as §1

Gal(b1-6)Gal = target: Gal(b1-6)Gal
Procedure, shortened: as §1

Gal3S(b1-3)GalNAc = target: Gal3S(b1-3)GalNAc
Procedure, shortened: as §1

Gal3S(b1-3)GlcNAc = target: Gal3S(b1-3)GlcNAc
Procedure, shortened: as §1

[26] = target: Gal3S(b1-3)[Fuc(a1-4)]GlcNAc
Procedure, shortened: as §1

Gal3S(b1-4)Glc = target: Gal3S(b1-4)Glc
Procedure, shortened: as §1

Gal3S(b1-4)Glc6S = target: Gal3S(b1-4)Glc6S
Procedure, shortened: as §1

Gal3S(b1-4)GlcNAc = target: Gal3S(b1-4)GlcNAc
Procedure, shortened: as §1

[27] = target: Gal3S(b1-4)[Fuc(a1-3)]Glc6S
Procedure, shortened: as §1

[28] = target: Gal3S(b1-4)[Fuc(a1-3)]GlcNAc
Procedure, shortened: as §1

[29] = target: Gal3S(b1-4)[Fuc(a1-3)]GlcNAc6S
Procedure, shortened: as §1

Gal3S4S(b1-4)GlcNAc = target: Gal3S4S(b1-4)GlcNAc
Procedure, shortened: as §1

B1: PX9937J-pdi-523-26-523 (Parabacteroides distasonis) (protein)
chain: EPVSSISDANYWKSPDLFKAFNIGLHGLLRSQSSYNIFVLGEPRSDIYGDQPFGGEATQGVERFSYNTINAEFTGISNFANFYTTLNQINLMIRRTNETDLLGEAEKNYYLGQAYGLRAYIYFHLLRSWGDVIITTEPTLGSELDISHLDKAASPASEVMDLIKKDIDASEKAFGGDYSYKQGKCYWSKPATLMLKGEVYLWSGRQMGGGTGDYTVAKTALQDLQQNGNLKLQEKFTDVFSFNNKENSEMIFALHSGKEDDFMMWRDYNWRNNMVPQREYMAGYCDETGTPFLEIPGYNLQGLMRYQVKKDHYLKSFREGDTRLKGTLKAVYKKHEDGTLEYIAPIQYKFQGTTLEGSNERSWYDDYPIYRYADALLLLAEAKALLGEDPSTEINAVRERAYGSEYFNAHKNEVAYPNDKGSFYNDNPFEAGDENVMEAILKERLREFFFEGKRWYDLRRFGKDYVLKYTTAQESRLLWPINEGALTNNPALKQTPGY
Which “glycan array binding signal (z-score)” value [1] does the source give for B1 here?
The value was 10.4.

And the “glycan array binding signal (z-score)” value [2]?
Its value is 0.551.

And the “glycan array binding signal (z-score)” value [3]?
The value was -0.378.

And the “glycan array binding signal (z-score)” value [4]?
The value was 0.115.

What about the “glycan array binding signal (z-score)” value [5] of the same binder?
The value was 0.211.

And the “glycan array binding signal (z-score)” value [6]?
Its value is 2.37.

What about the “glycan array binding signal (z-score)” value [7] of the same binder?
Its value is 0.62.

And the “glycan array binding signal (z-score)” value [8]?
Its value is 0.026.

And the “glycan array binding signal (z-score)” value [9]?
Its value is 1.03.

What about the “glycan array binding signal (z-score)” value [10] of the same binder?
Its value is 0.269.

And the “glycan array binding signal (z-score)” value [11]?
Its value is 0.647.

What about the “glycan array binding signal (z-score)” value [12] of the same binder?
The value was 0.222.

What about the “glycan array binding signal (z-score)” value [13] of the same binder?
Its value is 8.6.

What about the “glycan array binding signal (z-score)” value [14] of the same binder?
Its value is 6.57.

And the “glycan array binding signal (z-score)” value [15]?
Its value is 0.609.

What about the “glycan array binding signal (z-score)” value [16] of the same binder?
Its value is 0.289.

And the “glycan array binding signal (z-score)” value [17]?
Its value is -0.26.

And the “glycan array binding signal (z-score)” value [18]?
The value was -0.086.

And the “glycan array binding signal (z-score)” value [19]?
Its value is -0.041.

What about the “glycan array binding signal (z-score)” value [20] of the same binder?
Its value is -0.21.

What about the “glycan array binding signal (z-score)” value [21] of the same binder?
The value was -0.268.

And the “glycan array binding signal (z-score)” value [22]?
The value was -0.198.

And the “glycan array binding signal (z-score)” value [23]?
Its value is 0.137.

What about the “glycan array binding signal (z-score)” value [24] of the same binder?
The value was -0.514.

And the “glycan array binding signal (z-score)” value [25]?
The value was -0.149.

What about the “glycan array binding signal (z-score)” value (Gal(b1-4)GlcNAc6P) of the same binder?
Its value is -0.265.

What about the “glycan array binding signal (z-score)” value (Gal(b1-6)Gal) of the same binder?
Its value is 0.433.

What about the “glycan array binding signal (z-score)” value (Gal3S(b1-3)GalNAc) of the same binder?
The value was -0.339.

What about the “glycan array binding signal (z-score)” value (Gal3S(b1-3)GlcNAc) of the same binder?
Its value is 0.47.

What about the “glycan array binding signal (z-score)” value [26] of the same binder?
Its value is 0.136.

What about the “glycan array binding signal (z-score)” value (Gal3S(b1-4)Glc) of the same binder?
Its value is -0.096.

And the “glycan array binding signal (z-score)” value (Gal3S(b1-4)Glc6S)?
Its value is -0.212.

What about the “glycan array binding signal (z-score)” value (Gal3S(b1-4)GlcNAc) of the same binder?
The value was -0.432.

What about the “glycan array binding signal (z-score)” value [27] of the same binder?
The value was 0.076.

What about the “glycan array binding signal (z-score)” value [28] of the same binder?
Its value is -0.159.

And the “glycan array binding signal (z-score)” value [29]?
The value was 0.348.

What about the “glycan array binding signal (z-score)” value (Gal3S4S(b1-4)GlcNAc) of the same binder?
The value was -0.379.
